# PubChem BioAssay (NCATS)
# Inconclusive results, whose numbers are uncertain, are shown with a selection of clear calls. For part of these data: No potency is given beside an inconclusive call; the fits are too rough. Activity calls are given as the source filed them. Calls follow the shape of the dose curve; as a rule, active = well fitted curve in the direction sought with a large enough effect; inconclusive = small, poorly fitted or top-dose-only effect, or another doubt; inactive = no such curve, though single readings can be large; an effect the other way counts as inactive or inconclusive.
# Key:
# [1] = Primary redox qHTS assay for identification of artifact compounds. (AID 1845223)
# Procedure, shortened: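 Amplex Red (25 uM) and HRP (250 mU/mL) in HBSS, with compounds for 15 min, then 250 uM DTT for 30 min, room temperature, dark. Fluorescence 525/598 nm read; normalized to DMSO and 10 uM DA3003; Hill fit.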
# [2] = Quantitative High-Throughput drug screen in 47 multiple myeloma cell lines against the NCATS MIPE library collection: FR4_PLB cell viability assay (AID 1918924; also: nearly all actives have a fitted effect of over 35% in size); settings: FR4_PLB myeloma cells viability, CellTiter-Glo ATP, 48 h; viability (% of DMSO control): at 45.8 µM (top of the series)
# Procedure, shortened: (§1)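 CellTiter-Glo luminescence (ATP) after 48 h compound exposure, 37C/5% CO2; 500 cells/well; MIPE 4.0 approved/investigational drugs pinned in; DMSO = 100%, media only = 0% viability.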
# [3] = Quantitative High-Throughput drug screen in 47 multiple myeloma cell lines against the NCATS MIPE library collection: EJM_DSMZ cell viability assay (AID 1918926; also: nearly all actives have a fitted effect of over 30% in size); settings: EJM myeloma cell viability, CellTiter-Glo ATP, 48 h; viability, % of control: at 45.8 µM (top of the series)
# Procedure, shortened: (§2)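 Myeloma cell lines, 500 cells per well, exposed to MIPE 4.0 library compounds for 48 h at 37C, 5% CO2. Viability from ATP by CellTiter-Glo luminescence; normalised to DMSO (100%) and media-only (0%) wells.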
# [4] = Quantitative High-Throughput drug screen in 47 multiple myeloma cell lines against the NCATS MIPE library collection: AMO1_DSMZ cell viability assay (AID 1918927; also: nearly all actives have a fitted effect of over 30% in size); settings: AMO1 myeloma cells viability, CellTiter-Glo ATP luminescence, 48 h; viability, % of DMSO: at 45.8 µM (top of the series)
# Procedure, shortened: as §2
# [5] = Quantitative High-Throughput drug screen in 47 multiple myeloma cell lines against the NCATS MIPE library collection: ARP1_JJKsccF8 cell viability assay (AID 1918928; also: nearly all actives have a fitted effect of over 40% in size); settings: ARP1 myeloma cells viability, CellTiter-Glo ATP, 48 h; viability: at 45.8 µM (top of the series)
# Procedure, shortened: (§3)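 Here, 48 h treatment with MIPE 4.0 agents at 37 °C preceded an ATP luminescence read. Plating density was 500 cells per well.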
# [6] = Quantitative High-Throughput drug screen in 47 multiple myeloma cell lines against the NCATS MIPE library collection: Karpas417_ECACC cell viability assay (AID 1918961); settings: Karpas417 myeloma viability, CellTiter-Glo ATP luminescence, 48 h; viability (% of DMSO): at 45.8 µM (top of the series)
# Procedure, shortened: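 Myeloma cells (500 per well) were exposed to MIPE 4.0 compounds by pin transfer and incubated 48 hours at 37C, 5% CO2. Viability was read as ATP by CellTiter-Glo luminescence, normalised to DMSO (100%) and media-only (0%) wells.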
# [7] = Quantitative High-Throughput drug screen in 47 multiple myeloma cell lines against the NCATS MIPE library collection: KMM1_JCRB cell viability assay (AID 1918960); settings: KMM1 myeloma viability, CellTiter-Glo ATP luminescence, 48 h; viability (% of DMSO): at 45.8 µM (top of the series); also: nearly all actives have a fitted effect of over 30% in size;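 as to viability (% of DMSO): 100% = DMSO-treated cells and 0% = medium-only wells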
# Procedure, shortened: as §3
# [8] = Quantitative High-Throughput drug screen in 47 multiple myeloma cell lines against the NCATS MIPE library collection: ARD_JJKsccE7 cell viability assay (AID 1918929); settings: ARD myeloma cell line viability, CellTiter-Glo, 48 h; viability: at 45.8 µM (top of the series)
# Procedure, shortened: as §2
# [9] = Quantitative High-Throughput drug screen in 47 multiple myeloma cell lines against the NCATS MIPE library collection: Karpas620_DSMZ cell viability assay (AID 1918959); settings: Karpas620 myeloma viability, CellTiter-Glo ATP luminescence, 48 h; viability (% of DMSO): at 45.8 µM (top of the series); also: nearly all actives have a fitted effect of over 30% in size
# Procedure, shortened: as §1
# [10] = Quantitative High-Throughput drug screen in 47 multiple myeloma cell lines against the NCATS MIPE library collection: Delta47_JCRB cell viability assay (AID 1918925; also: nearly all actives have a fitted effect of over 45% in size); settings: Delta47 myeloma viability, CellTiter-Glo ATP, 48 h; viability (% of DMSO): at 45.8 µM (top of the series)
# Procedure, shortened: as §2
# Potency is read from the fitted curve at half-maximal effect; tags tell the direction and shape of the fitted curve.
Compound,Potency [1],Potency [2],Potency [3],Potency [4],Potency [5],Potency [6],Potency [7],Potency [8],Potency [9],Potency [10],"viability, % of DMSO [4]",viability [8]
CN(C)c1nc(Cc2ccc(NC(=O)c3ccc(C(F)(F)F)cc3)cc2)nc(N(C)C)c1CC(=O)O,"inconclusive [activator, partial curve, poor fit]",inconclusive [cytotoxic],inactive,inactive,inactive,"inconclusive [rising, full curve, poor fit]",–,–,–,–,–,–
c1cc(OCCN2CCCCC2)cc(-c2n[nH]c3ccc(-c4ncn[nH]4)cc23)c1,inactive,"inconclusive [cytotoxic, partial curve]",–,"inconclusive [cytotoxic, partial curve]","inconclusive [cytotoxic, partial curve, poor fit]","inconclusive [cytotoxic, partial curve, poor fit]","inconclusive [cytotoxic, partial curve]",–,–,–,–,–
O=P(O)(O)C(O)(Cc1cccnc1)P(=O)(O)O,inactive,–,inactive,–,"inconclusive [rising, full curve, poor fit]","inconclusive [cytotoxic, full curve, poor fit]",inactive,inconclusive,inactive,–,–,–
CCCCn1c(=O)n(Cc2ccccc2F)c(=O)c2[nH]c(Cc3ccc(NC(C)=O)cc3)nc21,inactive,"inconclusive [cytotoxic, partial curve, poor fit]","inconclusive [cytotoxic, partial curve, poor fit]","inconclusive [cytotoxic, full curve, poor fit]","inconclusive [cytotoxic, single point]","inconclusive [rising, full curve, poor fit]",inactive,inactive,–,inactive,–,–
CC(C)C[C@H](NC(=O)[C@@H](NC(=O)c1cccc(-c2ccccc2)n1)[C@@H](C)O)B(O)O,"inconclusive [activator, single point]",–,–,–,–,–,–,–,–,active: 0.0166 µM,inconclusive: 3.93% [cytotoxic],inconclusive: 5.11% [cytotoxic]
CN(c1nccc(=O)[nH]1)C1CCN(c2nc3ccccc3n2Cc2ccc(F)cc2)CC1,"inconclusive [activator, full curve, poor fit]",–,"inconclusive [cytotoxic, partial curve, poor fit]",–,inactive,–,inactive,–,–,active: 4.69 µM,–,–
C[C@H](O)[C@@H]1C(=O)N2C(C(=O)O)=C(S[C@@H]3CN[C@H](CNS(N)(=O)=O)C3)[C@@H](C)[C@@H]12,"inconclusive [activator, partial curve, poor fit]",–,inactive,"inconclusive [cytotoxic, partial curve, poor fit]",inactive,–,inactive,–,–,–,–,–
COc1cc2c(cc1OC)CN(CCc1ccc(NC(=O)c3cccc4c(=O)c5cccc(OC)c5[nH]c34)cc1)CC2,"inconclusive [activator, partial curve, poor fit]","inconclusive [rising, full curve, poor fit]","inconclusive [cytotoxic, partial curve, poor fit]","inconclusive [rising, full curve, poor fit]",–,"inconclusive [cytotoxic, single point]",inactive,inactive,"inconclusive [rising, full curve, poor fit]",–,–,–
CC1=NN(c2ccccc2)C(=O)C1,active: 3.36 µM,–,"inconclusive [rising, full curve]","inconclusive [rising, full curve, poor fit]",–,–,–,inactive,inactive,inactive,–,–
CC(O)C1C(=O)N2C(C(=O)O)=C(SC3CNC(C(=O)N(C)C)C3)C(C)C12 (stereo not drawn),"inconclusive [activator, partial curve, poor fit]",inactive,inactive,"inconclusive [rising, full curve, poor fit]","inconclusive [rising, full curve, poor fit]","inconclusive [rising, full curve, poor fit]",–,–,–,inactive,–,–
